Experimental data reported in PubChem BioAssay AID1508642 (National Center for Advancing Translational Sciences (NCATS), 2021).
Screen size: about 43,000 compounds; about 200 (0.47%) were called active. Not shown: some 12% with an inconclusive outcome. The call rests on the fitted dose curve; in most records, active means well fitted cell-killing curve with a large enough effect; inconclusive means small, poorly fitted or top-dose-only effect, or effect the other way; inactive means flat fitted curve, though single readings scatter. The list shows a part of the results.

assay: Cell viability qHTS assay in S16 Pmp22-F2sN cells; conditions: S16 Pmp22-F2sN Schwann cells (luciferase reporters placed in the Pmp22 gene) viability, CellTiter-Glo, 24 h; series mostly up to 57.5 µM; activity change, negative = cytotoxicity: at the top concentration; further: nearly all actives have a fitted effect of over 65% in size
In short: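 Seed 500-1,000 S16 Pmp22-F2sN cells per well in phenol-red-free DMEM with 10% heat-inactivated FBS; pin-add 23 nL compound; incubate 24 h at 37C; add CellTiter-Glo, wait 15 min protected from light; read luminescence.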
On the % scale 0 is the no-effect control and ±100 the full control effect.

| SMILES | activity change, negative = cytotoxicity |
| --- | --- |
| Cc1cc(C)cc(-n2ccnc2SCC(=O)Nc2ccccc2F)c1 | inactive: -0.59% |
| Cc1cccc(NC(=O)c2c(NC(=O)c3ccccc3)sc3c2CCC3)c1 | inactive: 1.96% |
| COc1ccc(C(=O)c2cn(Cc3ccccc3OC)c3cc4c(cc3c2=O)OCO4)cc1 | inactive: -1.95% |
| COc1ccc(CNC(=O)Cn2cccc2C(=O)c2ccccc2C)cc1 | inactive: 2.03% |
| Cc1cccc(N2CCN(c3nc4ccccc4c4nnc(C)n34)CC2)c1C | inactive: 3.15% |
| CCN(CC)C(=O)c1sc2c(c1C)c(=O)n(-c1ccc(OC)cc1OC)c(=O)n2CC(=O)Nc1ccccc1 | inactive: -13.6% |
| COC(=O)c1ccc(NC(=O)CC2C(=O)N(c3ccccc3)C(=O)N2Cc2cccs2)cc1 (centres undefined) | inactive: 22.2% |
| Cc1cccc(-n2ncc3c(NNC(=O)c4ccccc4Cl)ncnc32)c1 | inactive: 5.53% |
| COc1ccc(-c2ccc(=O)n(CC(=O)Nc3cc(OC)ccc3OC)n2)cc1 | inactive: -6.99% |
| O=c1[nH]c(C2CCCN(S(=O)(=O)c3ccccc3)C2)nc2c1nnn2Cc1ccccc1Br (centres undefined) | inactive: 15.8% |
| CCOC(=O)c1cccc(NC(=O)Nc2c(C)n(C)n(-c3ccccc3)c2=O)c1 | inactive: -9.97% |
| COc1ccc(CNC(=O)c2cc(-c3ccc(Br)s3)nc3ccccc23)cc1 | inactive: -3.86% |
| Cc1ccc(C)c(Nc2nn3c(=O)c4ccc(C(=O)NCc5ccccc5)cc4nc3s2)c1 | inactive: 21.7% |
| O=C(CN1C(=O)COc2ccc(S(=O)(=O)N3CCCCCC3)cc21)N1CCN(c2ccc(Cl)cc2)CC1 | inactive: -2.91% |
| CCOC(=O)c1ccc(NC(=O)CC(C)n2nc(C)cc2C)cc1 (centres undefined) | inactive: -15.9% |
| COc1cc(NC(=O)Cc2noc3ccccc23)cc(OC)c1OC | inactive: -6.65% |
| CCS(=O)(=O)NCCc1csc2nc(-c3ccc(OC)cc3)nn12 | inactive: 0.669% |
| COc1ccc(OC)c(S(=O)(=O)NCCS(=O)(=O)N2CCN(c3ccccc3F)CC2)c1 | inactive: -6.97% |
| CCc1cnc2c(c1SCc1cc(OC)cc(OC)c1)c(=O)n(C)c(=O)n2C | inactive: 2.9% |
| Cc1ccc(C)c(CN2C(=O)c3ccccc3S(=O)c3ccc(C(=O)N4CCCCC4)cc32)c1 (centres undefined) | inactive: 3.4% |
| Cc1cccc(C)c1NC(=O)Cn1cc(C(=O)C2CC2)c2ccccc21 | inactive: -12.8% |
| Cc1nn(CCC(=O)Nc2cccc(C#N)c2)c(C)c1S(=O)(=O)N1CCCCC1 | inactive: -16.9% |
| COc1cccc(C(=O)Nc2nnc(S(=O)(=O)N3CCCc4ccccc43)s2)c1 | inactive: 4.07% |
| CCCCN(CC)CCCNC(=O)c1cn(C)c(=O)c2c1c1ccccc1n2C | inactive: 4.89% |

| SMILES | activity change, negative = cytotoxicity |
| --- | --- |
| Cc1ccccc1NC(=O)CN1C(=O)C(C)(C)c2ccccc21 | inactive: 8.68% |
| COc1cccc(NC(=O)c2cc3c(=O)n(C)c4ccccc4c3n2C)c1 | inactive: 15.4% |
| CCOc1ccc(S(=O)(=O)N(CC(=O)NCCc2ccc(OC)c(OC)c2)c2ccccc2)cc1 | inactive: 24.7% |
| COc1ccc(NC(=O)CN2C(=O)CSc3ccc(S(=O)(=O)N4CCCC4)cc32)cc1OC | inactive: 8.09% |
| COc1ccc(OC)c(CCNC(=O)c2c(C)oc3ncn(C)c(=O)c23)c1 | inactive: 1.57% |
| Cc1cccc(C)c1NC(=O)Cn1c(=O)n(CCC(=O)NCc2ccccc2Cl)c(=O)c2sccc21 | inactive: 2.68% |
| CCOc1ccc(CN2CCN(c3ncnc4sc5c(c34)CC(C)CC5)CC2)cc1 (centres undefined) | inactive: -11.4% |
| COc1ccccc1C(=O)Nc1nnc(S(=O)(=O)N(C)c2ccc(Cl)cc2)s1 | inactive: -1.49% |
| CCc1ccc(S(=O)(=O)c2cn(CC)c3cc(N4CCOCC4)c(F)cc3c2=O)cc1 | inactive: -28.4% |
| CC(=O)c1ccc(NC(=O)Cn2cc3c(n2)CCCC3)cc1 | inactive: -12.2% |
| Cc1nc(-c2ccccc2)sc1CCNS(=O)(=O)c1ccccc1 | inactive: -2.52% |
| CCOc1ccc2c(c1)c(=O)c(S(=O)(=O)c1ccccc1)cn2CC(=O)Nc1ccccc1OC | inactive: 7.34% |
| Cc1ccc(CNC(=O)C2CCN(S(=O)(=O)c3ccc4c(c3)CCCN4C(=O)C3CCC3)CC2)cc1 | inactive: 0.145% |
| Cc1nn2c(=O)cc(COC(=O)CNC(=O)c3ccc(F)cc3)nc2s1 | inactive: -0.618% |
| COc1ccc(C2=NC(C)(C)N(CC(=O)Nc3ccc(F)c(F)c3)C2=O)cc1 | inactive: -15.1% |
| Cc1cccc(CNC(=O)c2cnc3sc(N4CCCCCC4)nn3c2=O)c1 | inactive: 3.6% |
| COc1ccc(-c2nsc(NC(=O)c3oc4cc(C)c(C)cc4c3C)n2)cc1 | inactive: 3.53% |
| Cc1ccc(N(Cc2cccs2)C(=O)COc2cccc(C)c2)cc1 | inactive: -4.13% |
| CC(=O)c1ccc(NC(=O)Cn2c(=O)n(Cc3ccco3)c(=O)c3sc4ccccc4c32)cc1 | inactive: -1.52% |
| Cc1ccc(NC(=O)c2c(C)nc3sc(C(=O)Nc4ccc(F)cc4)c(N)c3c2-c2ccccc2Cl)c(C)c1 | inactive: 0.318% |
| COc1cccc(OC)c1C(=O)Nc1ccc(S(=O)(=O)Nc2nccc(C)n2)cc1 | inactive: -1.72% |
| CCOc1ccc(CCNC(=O)CSc2cc(=O)n(C)c3ccc(Cl)cc23)cc1OCC | inactive: -0.312% |
| COc1ccccc1NS(=O)(=O)c1cc2c(cc1Cl)NC(=O)CO2 | inactive: -20.9% |
| Cc1cccc(N2CCN(C(=O)CCSCc3ccccc3F)CC2)c1C | inactive: -11.9% |

| SMILES | activity change, negative = cytotoxicity |
| --- | --- |
| COc1ccccc1N1CCN(C(=O)Cn2ncc3c(=O)oc4ccc(C)cc4c32)CC1 | inactive: 13% |
| CN(C)S(=O)(=O)c1ccc(C(=O)Nc2ccc(-n3nncc3-c3ccccc3)cc2)cc1 | inactive: -16.1% |
| CCCc1cnc2c(c1SCc1ccc(C(F)(F)F)cc1)c(=O)n(C)c(=O)n2C | inactive: -1.75% |
| CC(C)Oc1ccc(CNC(=O)c2ccc(Cn3c(=O)c4cccn4c4cccnc43)cc2)cc1 | inactive: 7.65% |
| CCN1C(=O)C2(c3ccccc31)c1c(oc3ccc(F)cc3c1=O)C(=O)N2CCCOC (centres undefined) | inactive: 3.68% |
| Cc1ccc(NC(=O)CSc2ccc(-c3sc(-c4ccccc4)nc3C)nn2)cc1F | inactive: 13.2% |
| CCSc1nn(CC(=O)Nc2cccc(Cl)c2)c(N)c1S(=O)(=O)c1ccc(OC)cc1 | inactive: -26.3% |
| COc1cccc(CN(C(=O)c2cccc(C)c2)C2CCS(=O)(=O)C2)c1 (centres undefined) | inactive: -0.074% |
| COc1ccc(OC)c(-c2noc(N3CCN(c4cccc(C)c4C)CC3)n2)c1 | inactive: 15.2% |
| Cc1ccc(-n2nc3c(=O)n(CCCC(=O)NC(C)c4ccccc4)nc(C)c3c2C)cc1 (centres undefined) | inactive: 7.35% |
| CC(C)CC(=O)Nc1nnc(S(=O)(=O)N2CCc3ccccc32)s1 | inactive: 3.23% |
| Cc1ccc2oc(C(=O)Nc3sc4c(c3C(=O)NCc3cccnc3)CCCC4)cc(=O)c2c1 | inactive: -21.8% |
| CCCN(CCC)C(=O)Cn1c(=O)n(Cc2ccc(C(=O)NCCc3ccc(Cl)cc3)cc2)c(=O)c2ccccc21 | inactive: 15.1% |
| COc1ccccc1Cn1cc(C(=O)c2ccc(C)cc2)c(=O)c2cc(F)cc(F)c21 | inactive: -3.9% |
| CCc1ccc(NC(=O)Cn2c(=O)n(-c3cc(C)cc(C)c3)c(=O)c3oc4ccccc4c32)cc1 | inactive: 4.44% |
| COC(=O)c1ccccc1NC(=O)C1=C(C)C(=O)OC12CCC(C)CC2 (centres undefined) | inactive: 3.49% |
| Cc1ccc(CSc2oc(-c3cccs3)nc2S(=O)(=O)c2ccc(C)cc2)cc1 | inactive: 17.9% |
| CCCNC(=O)c1cnc2c(-c3ccc(OCC)c(OCC)c3)c(C)nn2c1-c1ccccc1 | inactive: 4.01% |
| COc1cc(NC(=O)CC(c2cccs2)N2Cc3ccccc3C2=O)cc(OC)c1OC (centres undefined) | inactive: 0.42% |
| CCc1cccc(NC(=O)Cn2nc3c4cc(F)ccc4n(Cc4cccc(C)c4)cc-3c2=O)c1 | inactive: 17.6% |
| CCc1ccccc1N1C(=O)N(CC(=O)c2ccc(OC)cc2)c2ccccc2S1(=O)=O | inactive: 13.5% |
| CC(C)Oc1ccc(C(=O)Nc2nonc2-c2ccc(OC(C)C)cc2)cc1 | inactive: 2.16% |
| COC(=O)CCN(C(=O)C1CCN(S(=O)(=O)c2c(C)noc2/C=C/c2ccccc2F)CC1)c1ccccc1 | inactive: 3.22% |
| COc1ccc(NC(=O)C(=O)NCc2ccco2)cc1 | inactive: 0.0184% |

| SMILES | activity change, negative = cytotoxicity |
| --- | --- |
| CCN(CCCNC(=O)Cn1ncc2c([nH]c3ccc(C)cc32)c1=O)Cc1ccccc1 | inactive: 1.86% |
| CC(C)n1c(=N)c(C(=O)NC2CCCCC2)cc2c(=O)n3ccccc3nc21 | inactive: 5.83% |
| Clc1cccc(CSc2nnc(C3CCNCC3)o2)c1 | inactive: 10.3% |
| CC(=O)Nc1ccc(S(=O)(=O)NCCS(=O)(=O)N2CCN(c3ccccc3F)CC2)cc1 | inactive: 5.09% |
| COc1cccc(Nc2nc3ccc(C(=O)c4ccccc4)cc3n3c(C)nnc23)c1 | inactive: 4.28% |
| CCOc1ccc2cc(-c3nnc(Nc4ccc(C)cc4)s3)c(=O)oc2c1 | inactive: -1.63% |
| Cc1ccccc1OCc1ccc(-c2nc(C#N)c(N3CCC(C(N)=O)CC3)o2)o1 | inactive: 1.9% |
| Cc1ccccc1NS(=O)(=O)c1nnc(NC(=O)c2ccco2)s1 | inactive: 7.17% |
| CCOC(=O)c1c(S(=O)(=O)NCC(=O)N(C)c2ccc(C)cc2)c(C)n(C)c1C | inactive: -0.877% |
| COc1ccc(CCC(=O)NCCc2csc(-c3cccc(C)c3)n2)cc1 | inactive: 13% |
| Cc1ccc(C)c(CN2C(=O)c3ccccc3S(=O)c3ccc(C(=O)NCCC4=CCCCC4)cc32)c1 (centres undefined) | inactive: -0.429% |
| Cc1ccccc1-c1nc(SCC(=O)N(C)c2ccccc2)c2c(=O)n(C)c(=O)n(C)c2n1 | inactive: -1.41% |
| O=C(Nc1ccc(Cl)c(-c2nc3cc(Cl)ccc3o2)c1)c1cc2ccccc2o1 | inactive: 13.8% |
| Cc1ccc(C2CCN(C(=O)Nc3ccc(C)c(C)c3)C2)cc1 (centres undefined) | inactive: 12.3% |
| COc1cccc(C(=O)Nc2ccc(S(=O)(=O)N(Cc3ccccc3)c3ccccc3)cc2)c1 | inactive: -22.8% |
| CCS(=O)(=O)N1CCc2cc(C(=O)NCCc3ccc(OC)c(OC)c3)ccc21 | inactive: -0.0189% |
| Cc1ccc(C(=O)Nc2ccc3[nH]c(=O)c(=O)[nH]c3c2)cc1 | inactive: 3.06% |
| CC(C)Oc1ccc(CNC(=O)Cn2c(-c3cccs3)cc3ccccc32)cc1 | inactive: 10.7% |
| CC(=O)c1ccc(N2CCN(C(=O)C3CCN(S(=O)(=O)c4c(C)noc4/C=C/c4ccccc4F)CC3)CC2)cc1 | inactive: 3.9% |
| Cc1ccc(NC(=O)c2sc3ncnc(N(C)C4CCCCC4)c3c2C)cc1 | inactive: -1.29% |
| Cc1ccc(C)c(N2CCN(c3nc4ccccc4c(=O)n3-c3ccccc3)CC2)c1 | inactive: -1.38% |
| O=c1c2c3c(sc2n(Cc2ccc(F)cc2Cl)c(=O)n1-c1ccc(Cl)cc1)CCC3 | inactive: -3.45% |
